Laboratory results as given in PubChem BioAssay AID540317 (National Center for Advancing Translational Sciences (NCATS), 2011).
In all, about 390,000 compounds went through this assay and about 2,200 (0.56%) were called active. The shares of active, inactive and inconclusive entries below differ from those in the screen. Calls come from the whole dose curve; as a rule, active = well fitted inhibition curve with a large enough effect; inconclusive = small, poorly fitted or top-dose-only effect; inactive = no such curve, though single readings can be large or run the other way. A potency beside an inconclusive call is a rough fit, not a confirmed value.

What follows are compounds tested against Chromobox protein homolog 1 (Homo sapiens) (UniProt P83916) (assay: HTS for Inhibitors of HP1-beta Chromodomain Interactions with Methylated Histone Tails). Conditions: AlphaScreen HP1-beta / biotin-H3K9me3 peptide binding; series mostly up to 114 µM.
Method in brief: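 Compound inhibition of the preformed complex between 50 nM HP1-beta and 50 nM biotinylated H3K9me3 peptide was read by AlphaScreen. Buffer was PBS pH 7.4 with 0.01% Tween-20. Incubations ran 30 min at room temperature, with 10 ug/mL donor/acceptor beads.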
Note: nearly all actives have a fitted effect of over 70% in size.
Potency is the fitted concentration of half-maximal effect; tags give direction and shape of the fitted curve.

Chain of UniProt P83916 (P83916 whole entry, looked up): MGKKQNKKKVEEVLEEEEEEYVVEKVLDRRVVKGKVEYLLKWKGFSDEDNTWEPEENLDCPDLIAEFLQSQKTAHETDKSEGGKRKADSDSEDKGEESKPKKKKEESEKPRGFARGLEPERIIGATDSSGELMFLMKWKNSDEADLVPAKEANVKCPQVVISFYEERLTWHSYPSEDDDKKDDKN

Compound | Potency
Cc1nn(-c2ccccc2)c(C)c1NC(=O)COC(=O)CCOc1ccccc1 | inactive
O=C1C=CC(=O)N1c1ccc(OC(F)F)cc1 | active: 20 µM
O=C(O)c1cc(O)c2c(c1)C(=O)c1cccc(O)c1C2=O | inconclusive: 28.2 µM [inhibitor, full curve]
Cc1ccc(C2=Nc3ccccc3N(C(=O)c3ccccc3)C(C)C2)cc1 (stereo not given) | inconclusive: 39.8 µM [inhibitor, single point]
COc1ccc(Nc2ncc(C(=O)Nc3cc(Cl)c(OC)cc3OC)c3ccccc23)cc1 | inactive
CCCCNC(=O)c1ccccc1C(=O)NCCCC | inconclusive: 5.62 µM [inhibitor, full curve]
Cc1ccn2cc(-c3ccc(O)c(O)c3)nc2c1 | inconclusive: 70.8 µM [inhibitor, partial curve]
CN(C)c1cc(Cl)c2nonc2c1N | inconclusive: 44.7 µM [inhibitor, partial curve]
O=C(CN1CCCCCC1)Nc1ccccc1 | inconclusive: 14.1 µM [inhibitor, full curve]
N#Cc1c(Cl)nsc1NN | active: 44.7 µM
CC(=O)NC1=NC(=O)/C(=C/c2cn(C(C)=O)nc2-c2ccccc2)S1 | inconclusive: 17.8 µM [inhibitor, single point]
Cc1ccc(C)c(S(=O)(=O)N2CC(=O)Nc3ccccc32)c1 | inconclusive: 39.8 µM [inhibitor, single point]
CCOC(=O)CC(C)(C)/C(C)=N/Nc1ccc([N+](=O)[O-])cc1[N+](=O)[O-] | active: 14.1 µM
CC1(C)CC(=O)C2=C(C1)c1c(ccc3ccccc13)NC2c1cc([N+](=O)[O-])cc([N+](=O)[O-])c1O (stereo not given) | inconclusive: 25.1 µM [inhibitor, partial curve]
CCc1noc(C)c1C(=O)OCC(=O)NCc1ccc(Cl)cc1 | inactive
CC[C@H](C)/C=C/C1=CC2=C(Cl)C(=O)[C@@]3(C)OC(=O)C(C(=O)[C@H](C)[C@@H](C)O)=C3C2=CO1 | inconclusive: 50.1 µM [inhibitor, partial curve]
C[C@@H](C(=O)NCc1ccccc1)[C@@H]1C[C@@]1(C)[C@@H](NC(=O)OCc1ccccc1)c1ccccc1 | inactive
O=C1/C(=C\c2ccccn2)SC(=S)N1c1ccc(S(=O)(=O)Nc2nccs2)cc1 | inconclusive: 10 µM [inhibitor, partial curve, poor fit]
COC(=O)c1nn(-c2ccc(OC)cc2)c(=O)c2c(N)sc(C)c12 | inconclusive: 11.2 µM [inhibitor, full curve]
COc1ccc(/C=N/N=C2/NC(=O)C(CC(=O)O)S2)cc1OS(=O)(=O)c1ccccc1 (stereo not given) | inactive
O=C(O)c1cccc(-n2cccc2/C=N/O)c1 | inconclusive: 56.2 µM [inhibitor, partial curve, poor fit]
CCc1cc(C(=O)NCC(c2ccc(OC)cc2)N2CCOCC2)sc1C (stereo not given) | inconclusive: 20 µM [inhibitor, full curve]
Cc1cccc(NC(=O)CN2C(=O)CC(c3ccccc3)Sc3ccccc32)c1 (stereo not given) | inactive
COC(=O)CCSc1cc([N+](=O)[O-])cc2c1c(C1OCCO1)nn2-c1ccccc1 | inconclusive: 3.98 µM [inhibitor, full curve, poor fit]

Compound | Potency
COc1ccc(/C=C2/C(=O)N(c3ccccc3)N=C2C)cc1Br | active: 22.4 µM
Cc1ccc(CSc2nc3cc(C(=O)NC4CCCC4)ccc3c(=O)n2Cc2ccccc2)cc1 | inactive
COc1cc(O)ccc1-c1nc2cc(C)ccn2c1Nc1ccccc1C | inconclusive: 44.7 µM [inhibitor, partial curve]
CC(C)(O)C1Cc2cc(/C=C/C(=O)O)c(O)cc2O1 (stereo not given) | inconclusive: 7.94 µM [inhibitor, full curve, poor fit]
Cc1ccc(O)c(Nc2c3ccccc3nc3ccccc23)c1 | inconclusive: 50.1 µM [inhibitor, single point]
O=C(Nc1cccc(Cl)c1)N1CCCCCC1 | inactive
O=[N+]([O-])c1ccccc1/C=N/N1CCN(Cc2ccccc2)CC1 | inconclusive: 56.2 µM [inhibitor, partial curve, poor fit]
Cc1ccc(NCCCn2cnc3c(OCc4ccccc4)ncnc32)cc1C | inconclusive: 50.1 µM [inhibitor, partial curve]
S=C(Nc1ccccn1)Nc1ccccc1Cl | inactive
COC(=O)c1ccc(C)c(NC(=O)c2ccc(Cl)c([N+](=O)[O-])c2)c1 | inconclusive: 39.8 µM [inhibitor, single point]
C=CCc1cc(Cl)ccc1OCCNCCCOC | inconclusive: 56.2 µM [inhibitor, single point]
CC(C)NC(=O)c1cc(-c2ccco2)nn1-c1ccc(Cl)cc1 | inconclusive: 50.1 µM [inhibitor, partial curve]
COc1ccc(OC)c(CN(CCN2CCOCC2)C(=O)Nc2cccc(Cl)c2)c1 | inconclusive: 22.4 µM [inhibitor, single point]
Cc1cnn(CCC(=O)NNC(=S)Nc2ccc(F)cc2)c1 | inconclusive: 31.6 µM [inhibitor, single point]
CC1=NN(c2ccc(C)cc2)C(=O)/C1=C\c1ccc(Br)s1 | inconclusive: 7.94 µM [inhibitor, full curve, poor fit]
Cc1ccc(NN=C2c3ccccc3-c3ccccc32)cc1 | inconclusive: 89.1 µM [inhibitor, single point]
O=C(CN1CCC(C(=O)c2ccc3c(c2)OCCO3)CC1)NCc1ccc(F)cc1 | inactive
COc1ccc(CN2CCC(N(CCc3ccccc3)Cc3ccccc3)CC2)c(OC)c1 | inconclusive: 56.2 µM [inhibitor, partial curve, poor fit]
CCC(C)NCCCOc1ccc(C)cc1OC (stereo not given) | inconclusive: 56.2 µM [inhibitor, single point]
CC1=NN(c2ccccc2)C(=O)/C1=C/c1ccc(Cl)cc1 | inconclusive: 39.8 µM [inhibitor, partial curve]
CCS(=O)(=O)C1=NN2C(=N)/C(=C\c3ccc(SCc4ccco4)o3)C(=O)N=C2S1 | inconclusive: 50.1 µM [inhibitor, partial curve]
Cc1cc(C)c(S(=O)(=O)/N=C2\C=C(Nc3ccc(C(=O)O)cc3)C(=O)c3ccccc32)c(C)c1 | inconclusive: 14.1 µM [inhibitor, partial curve, poor fit]
CCn1c(-c2csc3c2CCCC3)n[nH]c1=S | inactive
O=C(O)c1ccccc1NS(=O)(=O)c1ccc(N/N=C/c2ccc(O)c(O)c2)c([N+](=O)[O-])c1 | active: 14.1 µM

Compound | Potency
Cc1ccc(C)c(OC(C)C(=O)Nc2ccc(S(=O)(=O)Nc3nccs3)cc2)c1 (stereo not given) | inconclusive: 89.1 µM [inhibitor, partial curve, poor fit]
CCCc1sc(N/N=C/c2ccccn2)nc1-c1ccc(F)cc1 | inactive
C=CCNC(=S)Nc1ccc2cn[nH]c2c1 | inactive
O=C1/C(=C\c2cccs2)Sc2ccc3ccccc3c21 | inconclusive: 25.1 µM [inhibitor, partial curve]
Cc1ccc(-c2csc3nnc(SCC(=O)Nc4nsc(-c5ccccc5)n4)n23)cc1 | inactive
Cc1ccc(-c2nc(=Nc3c(C)cc(C)cc3C)sn2-c2ccccc2)cc1 | inconclusive: 15.8 µM [inhibitor, single point]
CCN(CC)S(=O)(=O)c1ccc(O)c(NS(=O)(=O)c2ccccc2F)c1 | inconclusive: 28.2 µM [inhibitor, partial curve, poor fit]
CCOC(=O)C1CCN(C(=O)C2CCCN2S(=O)(=O)c2ccc(Cl)cc2)CC1 (stereo not given) | inactive
CN1C2C=C3C(C#N)=C(N)C(C#N)(C#N)[C@@H](c4cccs4)C3C1CC2 (stereo not given in full) | inactive
Cc1cccc(Nc2nc(-c3sc(C)nc3C)cs2)c1 | inconclusive: 44.7 µM [inhibitor, partial curve]
O=C(CN(Cc1ccccc1Cl)C(=O)c1csnn1)NC1CCCC1 | inconclusive: 89.1 µM [inhibitor, partial curve, poor fit]
COc1cc2cc(CN(CCCO)S(=O)(=O)c3ccccc3)c(=O)[nH]c2cc1OC | inactive
NC(=O)c1nsc(C(=O)N(Cc2ccco2)C(C(=O)NCc2ccc(F)cc2)c2ccc(O)cc2)c1N (stereo not given) | inactive
C=CCNC(=S)N1CCN(Cc2ccccc2)CC1 | inconclusive: 14.1 µM [inhibitor, full curve, poor fit]
O=[N+]([O-])c1ccc(O)c(/C=N/NC(=S)Nc2ccc(Cl)cc2Cl)c1 | inactive
O=C(O)c1ccccc1C(=O)Nc1cc(C(F)(F)F)ccc1N1CCCC1 | inconclusive: 70.8 µM [inhibitor, partial curve, poor fit]
CCN1CCN(c2ccc(S(=O)(=O)N3CCCCC3)cc2NC(=O)/C=C/c2ccc([N+](=O)[O-])cc2)CC1 | inconclusive: 35.5 µM [inhibitor, partial curve, poor fit]
Fc1ccc(CNCc2ccccc2Cl)cc1 | inconclusive: 15.8 µM [inhibitor, full curve, poor fit]
COC(=O)c1ccc(NC(=O)CN2C(=O)CC(c3ccccc3)Sc3ccccc32)cc1 (stereo not given) | inactive
CCOc1cc(Cl)c(S(=O)(=O)n2ccnc2)cc1Cl | inactive
COc1cccc(/C=N/n2c(COc3ccccc3)n[nH]c2=S)c1O | inconclusive: 44.7 µM [inhibitor, partial curve]
OC[C@@H]1CCC[C@@H](n2cnc3c(=S)nc[nH]c32)O1 | inconclusive: 22.4 µM [inhibitor, single point]
